Measured values: the RNAGym collection of RNA variant scans (doi:10.7554/elife.90254)
Read counts are not given, so values of variants with three or more changes are uncertain.

B1: LINE1-mini (parent)
chain: GGCAGAGCUCAACACAGCGUGGCAAAGUGGCUGUGGCUAGACUGCC

Variants of: B1
Experiment: self-cleavage, relative activity (ratio to wild type); higher = more cleavage; in vitro, sequencing; the parent is a self-cleaving ribozyme
Variant G7A U20A G27U G33A has a self-cleavage of 0.11. For G7A G35A C37U, the self-cleavage was 0.58. In the case of G7A C13A A16U A26G G27C C31A, the self-cleavage is reported as 0.06. With G7A C8G G30A G36U the self-cleavage was 0.05. In the case of G7A U20C C42G, the self-cleavage is reported as 0.03. Variant G7A C8U U43C has a self-cleavage of 0.25. For G7A C13A G21A, the self-cleavage was 0.27. Work on G7A U9G C13U A16U yielded a self-cleavage of 0.13. G7A C10A C37U A41C C45U showed a self-cleavage of 0.01. With G7A G33C U34A A41G the self-cleavage was 0.01. For G7A U20A G21C U32G, the self-cleavage was 0.03. With G7A G21C G29C C31A C37G C42A the self-cleavage was 0.01. Variant G7A C13A C18A C23G C37G A39G has a self-cleavage of 0.17. G7A G21A A24G U38C showed a self-cleavage of 0.08. Work on G7A A14C A39C yielded a self-cleavage of 0.04. In the case of G7A C10G G21A G33A U34C, the self-cleavage is reported as 0.01. With G7A C18G A39U the self-cleavage was 0.09. With G7A A16G G30A G33U C37G the self-cleavage was 0.01. In the case of G7A A12G C18U U32C, the self-cleavage is reported as 0.05. For G7A U32G C42A, the self-cleavage was 0.42. For G7A G27C G40U, the self-cleavage was 0.32. G7A C31U U43G gave a self-cleavage of 0.07. Variant G7A A24G A41C has a self-cleavage of 0.09. Variant G7A G29U C42U has a self-cleavage of 0.17. Variant G7A G27U G30U has a self-cleavage of 0.02. In the case of G7A G30U C31A, the self-cleavage is reported as 0.09. Variant G7A U9C G22C U32C C42A has a self-cleavage of 0.01. Work on G7A A14C G17U C23U C42U yielded a self-cleavage of 0.12. With G7A A16G C23G the self-cleavage was 0.06. With G7A U9G A26U G29C A39U the self-cleavage was 0.01. Variant G7A G19U C46G has a self-cleavage of 0.09. G7A C13G C23A A24G gave a self-cleavage of 0.31. G7A G22U G30C A39U gave a self-cleavage of 0.97. For G7A C10U C23U, the self-cleavage was 0.34. With G7A C10A G35C G36C the self-cleavage was 0.01. G7A G17A G33U showed a self-cleavage of 0.05. Variant G7A A24C U32C A39C has a self-cleavage of 0. G7A C15G G44U C45A gave a self-cleavage of 0.23. G7A G21U G36C gave a self-cleavage of 0.07. Variant G7A C18A G40U has a self-cleavage of 0.01. Work on G7A C18U G36A U38G yielded a self-cleavage of 0.03. Variant G7A G17A G22A C31U has a self-cleavage of 0.26. G7A C13U U38A gave a self-cleavage of 0.28. G7A U32C A41G showed a self-cleavage of 0.1. For G7A G17A G29A C31A C46U, the self-cleavage was 0.11. Variant G7A G29C G33U G36U C37U C42U has a self-cleavage of 0.01. G7A G29A U32G A41U showed a self-cleavage of 0.04. G7A G19C U28G showed a self-cleavage of 0.03. Work on G7A C13A G22U A41G yielded a self-cleavage of 0.28. Work on G7A G17U G35U yielded a self-cleavage of 0.21. With G7A C31G U34C the self-cleavage was 0.06. Work on G7A A26G G27U yielded a self-cleavage of 0.08. Variant G7A C37A G40A U43C has a self-cleavage of 0.34. Work on G7A C13A G22U yielded a self-cleavage of 0.27. With G7A A26U G30U U32C the self-cleavage was 0.1. G7A U32A G36U C42U gave a self-cleavage of 0.05. For G7A C8G A11G A25G C37U, the self-cleavage was 0.02. For G7A C8U G40C, the self-cleavage was 0.15. Work on G7A C31G G33C yielded a self-cleavage of 0. In the case of G7A A12G G17U U38A, the self-cleavage is reported as 0.2. In the case of G7A C18A U28A U34G, the self-cleavage is reported as 0.03. Variant G7A G22U G27A U32C G36U has a self-cleavage of 0.25. G7A G29A U34G C45U showed a self-cleavage of 0.29. Variant G7A G29C G36A U38C has a self-cleavage of 0.23. Variant G7A C13G A16C U38C A41G U43G C46A has a self-cleavage of 0.03. G7A A12U G27A gave a self-cleavage of 0.08. Variant G7A U28A G29U C37A has a self-cleavage of 0. For G7A A12C U34C, the self-cleavage was 0.01. G7A C8U C10A G22C gave a self-cleavage of 0.04. With G7A U9C G17U G22U C46G the self-cleavage was 0.03. Work on G7A C10U G40C yielded a self-cleavage of 0.04. In the case of G7A C8A C37U, the self-cleavage is reported as 0.17. G7A U9C C15U G19C G29C U34G showed a self-cleavage of 0.01. With G7A G17A A24G C31G the self-cleavage was 0.03. Variant G7A C10G U28C has a self-cleavage of 0.01. G7A C8A G30C showed a self-cleavage of 0.57. Variant G7A U9G G27C has a self-cleavage of 0.22. Work on G7A G33A C37U yielded a self-cleavage of 0.24. With G7A G27A G40A C42U the self-cleavage was 0. Variant G7A G17C G19A has a self-cleavage of 0.09. Work on G7A C8U G29U yielded a self-cleavage of 0.33. Work on G7A C10A G17U A24U C31G yielded a self-cleavage of 0.03. In the case of G7A C10A C46G, the self-cleavage is reported as 0.01. Work on G7A C15G G30U G33U yielded a self-cleavage of 0.27. G7A G22U U34G gave a self-cleavage of 0.12. For G7A U20A G29U C46A, the self-cleavage was 0.08. Work on G7A C10A C18U yielded a self-cleavage of 0. For G7A A14U G17A C23U U38G A39U, the self-cleavage was 0.18. With G7A C23G G44A the self-cleavage was 0.07. Variant G7A A16C G17A C18G G19C U20G G21A A24C has a self-cleavage of 0.02. G7A G30A C31U C37G showed a self-cleavage of 0.03. With G7A A16G C18U U20G C31G U32A the self-cleavage was 0.02. For G7A C10U A11C G35A, the self-cleavage was 0.04. Variant G7A A24C A25G has a self-cleavage of 0.13. G7A G35U C42A gave a self-cleavage of 0.14. For G7A G19A A25G U28A, the self-cleavage was 0.11. For G7A C13A C18A G27A, the self-cleavage was 0.13. Variant G7A U20G C31U has a self-cleavage of 0.07. For G7A G29C G30U, the self-cleavage was 0.1. For G7A A16G A24U C37A, the self-cleavage was 0.31. For G7A C10G C37G, the self-cleavage was 0.02. G7A C10A U43A C46G showed a self-cleavage of 0.02. With G7A G30A C37G A39U C46U the self-cleavage was 0.09. In the case of G7A G36C U43C, the self-cleavage is reported as 0.16. Work on G7A C8U A16U U20C G30U C31G G36C yielded a self-cleavage of 0.08. G7A U9G C18U U20G G36A U43G C45G gave a self-cleavage of 0.04. G7A C23A A24U C31U C37G showed a self-cleavage of 0.02. G7A U9A U34C G44U showed a self-cleavage of 0.22. In the case of G7A A16C C31U, the self-cleavage is reported as 0.03. In the case of G7A U9C G33U, the self-cleavage is reported as 0.02. G7A C31G G35U G40A gave a self-cleavage of 0.08. Variant G7A C15A A16G G19A has a self-cleavage of 0.15. G7A C10G G30C gave a self-cleavage of 0.01. Work on G7A G27A C42U yielded a self-cleavage of 0.08. For G7A C8G C10U C23U G35U C46G, the self-cleavage was 0.11. In the case of G7A G29U C31A, the self-cleavage is reported as 0.09. Work on G7A C13A A16U C18U U34G G44A yielded a self-cleavage of 0.06. For G7A G40A A41U, the self-cleavage was 0.23. In the case of G7A A14G U38G, the self-cleavage is reported as 0.03. Work on G7A G30A A39C A41G yielded a self-cleavage of 0.15. In the case of G7A G33A U34C, the self-cleavage is reported as 0.11. Variant G7A U20G G21A has a self-cleavage of 0.07. Variant G7A C10U A16U U28C A39U G40U has a self-cleavage of 0.03. Variant G7A A14C A16G has a self-cleavage of 0.08. G7A C8G G29U A39G G44U showed a self-cleavage of 0.03. Work on G7A A14U C31U yielded a self-cleavage of 0.09. Work on G7A C18A G19A C23G C42U G44A yielded a self-cleavage of 0.05. G7A C8U A14G G17A G19U G21C G30A U43G C45A showed a self-cleavage of 0.03. In the case of G7A A16G G19U G33C, the self-cleavage is reported as 0.01. For G7A A26C C37A A39U, the self-cleavage was 0.03. In the case of G7A G17C G30A C37U A41C C45A, the self-cleavage is reported as 0.06. Variant G7A G27A G30A C42A has a self-cleavage of 0.36. Work on G7A U20A A39G yielded a self-cleavage of 0.09. With G7A C13U G17U G21C C42U the self-cleavage was 0.65. Variant G7A C10A A16G has a self-cleavage of 0.02. Variant G7A C10G A25U has a self-cleavage of 0.01. Variant G7A G19A U32A G40U has a self-cleavage of 0.34. G7A A14U C42G C45A gave a self-cleavage of 0.04. G7A G17C A39C showed a self-cleavage of 0.04. G7A U28G G36U showed a self-cleavage of 0.05. With G7A U38G A39U the self-cleavage was 0.02. Variant G7A U20G C23A U28G has a self-cleavage of 0.03. G7A C13U G19U U32A U43A showed a self-cleavage of 0.08. G7A U34G A39C gave a self-cleavage of 0.02. For G7A G19U C37U A39U, the self-cleavage was 0.08. Variant G7A G22C G27A has a self-cleavage of 0.07. G7A C15U C31G gave a self-cleavage of 0.11. G7A G44A C46G gave a self-cleavage of 0.33. G7A G22U G33A U38A gave a self-cleavage of 0.25. G7A C8A C15G C31A gave a self-cleavage of 0.09. With G7A C18U U38C U43G the self-cleavage was 0.04. G7A G22U G33A G40U showed a self-cleavage of 0.35. In the case of G7A U32G C45U, the self-cleavage is reported as 0.1. G7A G19C C23G showed a self-cleavage of 0.07. For G7A A25G G29A, the self-cleavage was 0.19. G7A G17A C18A showed a self-cleavage of 0.13. G7A C10U C37U C46U showed a self-cleavage of 0.02. G7A C13G U32C showed a self-cleavage of 0.26. G7A C8G C31U gave a self-cleavage of 0.08. Work on G7A G33A G40U U43G C45A yielded a self-cleavage of 0.07. G7A U20A G27C showed a self-cleavage of 0.02. G7A G19U U20G G22A U38C showed a self-cleavage of 0.02. Work on G7A G21A U34A C42G C45G yielded a self-cleavage of 0.08. G7A C10G A12U A14U G27C G44U showed a self-cleavage of 0.04. G7A A12C C42A showed a self-cleavage of 0. G7A C10U C18U C23U showed a self-cleavage of 0.05. G7A C18U C42G gave a self-cleavage of 0.01.
